From the supplement of paper PMC12217912
Some of the results follow. The full chains were built here from the parent and the listed change. Inactive controls read about 0.05.

B1: TEV protease; numbered along this chain (parent)
chain: MGESLFKGPRDYNPISSSICHLTNESDGHTTSLYGIGFGPFIITNKHLFRRNNGTLVVQSLHGVFKVKDTTTLQQHLVDGRDMIIIRMPKDFPPFPQKLKFREPQREERICLVTTNFQTKSMSSMVSDTSCTFPSGDGIFWKHWIQTKDGQCGSPLVSTRDGFIVGIHSASNFTNTNNYFTSVPKNFMELLTNQEAQQWVSGWRLNADSVLWGGHKVFMVKPEEPFQPVKEATQL

Variants of: B1
Test: raw area under fraction-flipped curve 0-4 h after induction (AUC4h, not background-subtracted), DNA-recorder readout of cleavage of the substrate (dimensionless); higher = more cleavage of the substrate by the protease variant
Conditions: temperature: 34 °C; time window: 0-4 h after rhamnose induction
Description: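 In vivo DNA recorder in E. coli TOP10(DE3) ΔrhaA at 34 °C. Each TEVp single-site mutant (parent TEVp 0) is paired with a single-site variant of the 7-mer TEVs (canonical ENLYFQ|S). The substrate sits between flexible linkers in a Bxb1-sfGFP-TEVs-SsrA fusion, so cleavage stabilises Bxb1 and speeds flipping of a recombination array, read by NGS. The value is the raw area under the fraction-flipped curve over 0-4 h after rhamnose induction (AUC4h), with ≥20 reads per time point. It is not background-subtracted; inactive controls average about 0.047.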
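Note: Bxb1 expression induced with 0.2% (w/v) L-rhamnose at OD600 near 0.5, cultures sampled hourly, flipped fraction per protease–substrate barcode pair counted by paired-end Illumina sequencing.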

Variant | area with substrate FNLYFQS | area with substrate GNLYFQS | area with substrate HNLYFQS | area with substrate KNLYFQS | area with substrate MNLYFQS | area with substrate QNLYFQS | area with substrate RNLYFQS | area with substrate SNLYFQS | area with substrate VNLYFQS | area with substrate WNLYFQS | area with substrate NNLYFQS | area with substrate PNLYFQS | area with substrate TNLYFQS | area with substrate YNLYFQS | area with substrate LNLYFQS | area with substrate INLYFQS
G2I | 0.0648 | 0.111 | 0.0768 | 0.0727 | 0.0672 | 0.055 | 0.0593 | 0.056 | 0.0909 | 0.0584 | – | – | – | – | – | –
G2K | 0.0672 | 0.0781 | 0.0833 | – | – | 0.0699 | – | – | – | – | 0.0649 | 0.0791 | 0.0641 | 0.0658 | – | –
G2Y | 0.081 | – | – | 0.0713 | 0.0647 | – | – | – | – | – | 0.0801 | 0.127 | – | 0.0766 | – | –
E3A | 0.0757 | 0.0732 | 0.068 | 0.0384 | – | – | – | 0.0622 | – | 0.0716 | – | – | 0.0741 | 0.0672 | 0.0626 | –
E3D | 0.0626 | – | 0.0682 | – | – | – | 0.0596 | 0.0674 | 0.0141 | 0.0537 | 0.1 | 0.0398 | 0.0591 | 0.0655 | 0.0292 | 0.0566
E3W | 0.0577 | – | 0.0485 | – | 0.0714 | – | – | – | – | 0.0589 | – | 0.0705 | 0.075 | 0.0772 | 0.0677 | –
F6A | 0.0663 | – | – | – | – | – | – | – | – | – | – | – | 0.0665 | – | – | –
K7V | 0.0519 | – | – | – | – | – | – | 0.0702 | 0.0715 | 0.078 | 0.0577 | 0.0657 | 0.0935 | 0.08 | 0.0623 | –
K7W | 0.0784 | – | – | – | 0.0647 | – | – | – | 0.0515 | – | – | – | 0.0738 | – | 0.0835 | 0.068
G8L | 0.0576 | – | – | – | – | – | – | – | 0.0612 | 0.054 | – | – | – | – | – | –
P9N | 0.0417 | – | 0.0574 | 0.0627 | – | – | – | – | – | – | – | – | – | 0.0678 | – | –
Y12R | 0.0727 | 0.0635 | 0.0683 | 0.0511 | 0.0598 | 0.0698 | – | 0.0619 | – | 0.051 | 0.0462 | 0.0762 | 0.0742 | 0.0616 | 0.0735 | 0.0874
I15G | 0.0592 | 0.0605 | – | 0.0604 | – | 0.0566 | – | – | 0.0594 | 0.0432 | – | 0.0567 | 0.0508 | – | 0.0618 | 0.0673
S18G | 0.078 | – | 0.0646 | – | 0.0676 | – | 0.0577 | – | – | 0.0539 | 0.0667 | – | – | 0.0731 | – | –
L22M | 0.0569 | 0.0812 | 0.0567 | 0.0694 | – | 0.084 | – | 0.067 | – | 0.0888 | 0.061 | – | 0.0721 | 0.0627 | 0.0728 | 0.0646
E25S | 0.0735 | 0.0788 | 0.065 | – | 0.0606 | – | 0.0546 | 0.0426 | 0.0696 | 0.0582 | 0.0584 | 0.0678 | 0.0687 | 0.0635 | 0.0652 | 0.064
L33D | 0.0515 | 0.0455 | 0.0556 | – | – | – | – | 0.0558 | 0.0699 | – | 0.0652 | 0.0569 | 0.0525 | 0.0386 | 0.0718 | –
Y34H | 0.0663 | – | 0.0744 | 0.0773 | 0.0583 | – | 0.063 | 0.0628 | 0.0606 | 0.059 | – | – | 0.0697 | – | 0.0521 | 0.0835
G35T | 0.0451 | – | – | – | – | – | – | – | – | 0.0717 | – | 0.0451 | 0.0425 | – | – | –
T44M | 0.0473 | 0.0501 | 0.0511 | 0.0492 | – | – | – | 0.0576 | – | 0.0459 | 0.0458 | 0.0561 | 0.0542 | 0.0449 | – | 0.0543

Variant | area with substrate FNLYFQS | area with substrate GNLYFQS | area with substrate HNLYFQS | area with substrate KNLYFQS | area with substrate MNLYFQS | area with substrate QNLYFQS | area with substrate RNLYFQS | area with substrate SNLYFQS | area with substrate VNLYFQS | area with substrate WNLYFQS | area with substrate NNLYFQS | area with substrate PNLYFQS | area with substrate TNLYFQS | area with substrate YNLYFQS | area with substrate LNLYFQS | area with substrate INLYFQS
N45G | 0.0415 | – | – | 0.0609 | 0.0658 | 0.0592 | – | 0.0675 | – | 0.0541 | 0.0602 | – | 0.0527 | 0.0611 | 0.0611 | 0.0398
R51N | 0.0495 | – | – | – | 0.0559 | – | – | – | – | – | – | – | 0.0684 | – | 0.0802 | 0.07
V57Q | 0.0675 | – | 0.0663 | – | – | – | – | – | – | 0.048 | – | 0.0634 | 0.0778 | 0.0662 | – | –
V58M | 0.0483 | 0.0455 | – | – | – | – | – | 0.0851 | – | – | 0.0364 | 0.0633 | – | – | 0.0654 | 0.0635
Q59H | 0.0669 | 0.069 | 0.0624 | 0.0473 | 0.0591 | – | – | 0.0646 | 0.0678 | – | – | 0.0584 | 0.0614 | 0.0762 | – | 0.0534
S60G | 0.0567 | 0.0591 | – | – | – | – | – | – | – | – | 0.0666 | 0.0681 | – | 0.0633 | – | 0.0748
S60W | 0.0784 | 0.0668 | 0.074 | 0.0848 | 0.0595 | – | 0.0677 | 0.0473 | 0.0629 | – | – | 0.0565 | 0.0629 | 0.0493 | 0.0896 | –
L61F | 0.0621 | – | – | – | – | – | – | – | – | – | – | – | – | 0.0623 | – | –
F65I | 0.056 | – | 0.064 | 0.0519 | – | – | 0.0733 | – | – | 0.0528 | – | 0.0139 | 0.0626 | 0.0634 | 0.0537 | –
F65P | 0.0481 | – | 0.0347 | – | 0.0258 | – | – | 0.042 | – | 0.0496 | 0.0377 | 0.0725 | – | 0.0398 | – | –
V67G | 0.042 | – | 0.0428 | – | 0.0605 | 0.0404 | – | 0.0505 | 0.053 | 0.0481 | – | 0.0462 | 0.0858 | 0.0566 | 0.0591 | 0.0378
D69F | 0.0368 | – | – | 0.0583 | 0.0544 | – | – | – | 0.0721 | 0.0602 | – | – | – | – | – | 0.0432
V78D | 0.0382 | 0.054 | 0.056 | – | – | – | – | – | – | 0.059 | 0.0464 | 0.0842 | 0.0546 | – | 0.045 | 0.0473
V78E | 0.0445 | – | 0.0696 | 0.0721 | 0.0693 | 0.0673 | 0.0494 | 0.0418 | 0.04 | 0.0547 | 0.0177 | 0.0636 | 0.0639 | 0.0472 | 0.0641 | –
R81A | 0.0563 | 0.0668 | – | – | – | – | – | 0.0868 | – | 0.0575 | 0.0717 | – | – | – | 0.0632 | –
D82M | 0.0506 | 0.0654 | 0.0574 | – | – | – | – | 0.0477 | 0.0446 | – | – | 0.0618 | – | 0.0493 | – | –
M83E | 0.0566 | – | 0.0545 | – | 0.0631 | – | – | – | – | 0.064 | – | 0.0593 | – | – | 0.083 | –
M83L | 0.053 | 0.0645 | 0.0639 | – | 0.0614 | – | – | – | – | 0.0513 | – | – | – | – | 0.0591 | 0.0559
I84H | 0.0526 | 0.0647 | – | 0.0508 | 0.0483 | – | – | – | 0.05 | 0.0392 | 0.0529 | 0.0595 | 0.0581 | 0.0501 | 0.0573 | –
I84N | 0.0621 | – | 0.0956 | 0.0708 | – | – | – | 0.0588 | – | – | – | 0.0886 | 0.0509 | – | – | –
